{
  "source": "PubChem BioAssay AID886",
  "about": "(National Center for Advancing Translational Sciences (NCATS), 2007)",
  "note": "Where “and” joins values, the source holds several entries; their conditions need not be identical. Identical values can stand only once. The campaign covered roughly 73,000 compounds. About 2,500 (3.4%) were called active. Inconclusive means that the source gave no clear call. Such entries were picked first, then a sample of the others. The call rests on the fitted dose curve; in most records, active means well fitted inhibition curve with a large enough effect; inconclusive means small, poorly fitted or top-dose-only effect; inactive means no such curve, though single readings can be large or run the other way. A potency beside an inconclusive call is a rough fit, not a confirmed value. On the % scale 0 is the no-effect control and ±100 the full control effect; potency means the concentration at half of the fitted maximal effect; tags describe the fitted curve by direction and shape.",
  "data": [
    {"target": "3-hydroxyacyl-CoA dehydrogenase type-2 (Homo sapiens) (UniProt Q99714)", "assay": "qHTS Assay for Inhibitors of HADH2 (Hydroxyacyl-Coenzyme A Dehydrogenase, Type II); further: nearly all actives have a fitted effect of over 60% in size", "settings": "recombinant HADH2, NADH fluorescence, beta-hydroxybutyryl-CoA; activity change, negative = inhibition: at 57.1 µM (top of the series)", "outline": "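20 nM HADH2 + cpd, 15 min RT; add 1 mM NAD+/90 uM beta-hydroxybutyryl-CoA; kinetic fluorescence 360/450 nm, 4 min. Tris-HCl pH 9.0, 0.01% Tween-20.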", "values": [
      {"compound": "O=C(O)c1cc2cc(Cl)cc(Cl)c2oc1=O", "Potency": "inconclusive: 25.1 µM [inhibitor, single point]"},
      {"compound": "O=P(c1cccs1)(c1cccs1)c1cccs1", "Potency": "inconclusive: 6.31 µM [inhibitor, single point]"},
      {"compound": "COc1ccccc1NC(=O)c1oc2ccccc2c1NC(=O)c1cc(OC)c(OC)c(OC)c1", "Potency": "inconclusive: 6.31 µM [inhibitor, single point]"},
      {"compound": "Cc1ccc(N(CC(O)COCc2ccco2)S(=O)(=O)c2ccc(C)cc2)cc1", "note": "(stereo unspecified)", "Potency": "inactive"},
      {"compound": "c1ccc2c(NC3CCCC3)nnc(NC3CCCC3)c2c1", "Potency": "inactive"},
      {"compound": "CC(Sc1nncn1C)C(=O)Nc1nnc(C(C)C)s1", "note": "(stereo unspecified)", "Potency": "inactive"},
      {"compound": "CC(C)C(=O)Nc1ccc2c(c1)C(=O)N(CCC(=O)O)C2=O", "Potency": "active: 15.8 µM"},
      {"compound": "Cc1cc(=O)[nH]c(SCC(=O)N2CCC(C(N)=O)CC2)n1", "Potency": "inconclusive: 6.31 µM [inhibitor, single point]"},
      {"compound": "COc1ccc2c(C(=O)CN3CC(C)OC(C)C3)c[nH]c2c1", "note": "(stereo unspecified)", "Potency": "inconclusive: 25.1 µM [inhibitor, partial curve]"},
      {"compound": "C[C@@]12CC[C@@H]3c4ccc(O)cc4CC[C@H]3[C@H]1CC[C@H]2O", "Potency": "inconclusive: 31.6 µM [inhibitor, single point]"},
      {"compound": "CC(C)C(=O)N(c1ccc2oc(=O)sc2c1)S(=O)(=O)c1cccs1", "Potency": "inconclusive: 31.6 µM [inhibitor, single point]"},
      {"compound": "CCn1nnc(NC(=O)CSc2ccc(Cl)cc2)n1", "Potency": "inconclusive: 31.6 µM [inhibitor, partial curve, poor fit]"},
      {"compound": "CC(C)Sc1nc(NCc2ccco2)c2c3c(sc2n1)COC(C)(C)C3", "Potency": "inactive"},
      {"compound": "Clc1ccccc1-c1nn2c(-c3ccncc3)nnc2s1", "Potency": "active: 3.16 µM"},
      {"compound": "CCOCc1nnc(NS(C)(=O)=O)s1", "Potency": "inactive"},
      {"compound": "CCCCCn1c(=NC(=O)c2ccco2)c(C(=O)OCC)cc2c(=O)n3ccccc3nc21", "Potency": "inactive"},
      {"compound": "Nc1nnnn1/N=C/c1ccccc1OCc1ccccc1", "Potency": "inconclusive: 39.8 µM [inhibitor, single point]"},
      {"compound": "CCc1cc2c(=O)c(Oc3ccccc3)c(C)oc2cc1O", "Potency": "active: 25.1 µM"},
      {"compound": "COc1ccccc1N1CCN(C(CNC(=O)C2CCCCC2)c2cccnc2)CC1", "note": "(stereo unspecified)", "Potency": "inconclusive: 25.1 µM [inhibitor, single point]"},
      {"compound": "CC(C)c1[nH]nc2c1C(Cc1ccccc1)C(C#N)=C(N)O2", "note": "(stereo unspecified)", "Potency": "inactive"},
      {"compound": "Cc1nc(N)sc1-c1csc(Nc2ccc(Cl)cn2)n1", "Potency": "inconclusive: 25.1 µM [inhibitor, partial curve]"},
      {"compound": "COc1ccc(-c2csc(NCc3ccco3)n2)cc1C", "Potency": "active: 20 µM"},
      {"compound": "Nc1c2c(nc3ccccc13)CCCC2", "Potency": "inactive and inconclusive: 39.8 µM [inhibitor, single point]"},
      {"compound": "O=C(Nc1ccccc1N1CCN(C(=O)c2ccccc2)CC1)c1cc2ccccc2o1", "Potency": "inconclusive: 39.8 µM [inhibitor, single point]"},
      {"compound": "Cc1ccc(N(CC(=O)NCc2ccco2)S(=O)(=O)c2ccccc2)cc1", "Potency": "inconclusive: 39.8 µM [inhibitor, single point]"},
      {"compound": "Cc1ccccc1N(CC(=O)NCC1CCCO1)C(=O)C1(C)CC(=O)N=C2C=CC=CN21", "note": "(stereo unspecified)", "Potency": "inconclusive: 31.6 µM [inhibitor, single point]"},
      {"compound": "Cc1ccc2c(c1)c1c3n2CC(=C2C(=O)OC(C)(C)OC2=O)NC3CCC1", "note": "(stereo unspecified)", "Potency": "active: 25.1 µM"},
      {"compound": "C=CCn1c(-c2cc(OC)c(OC)c(OC)c2)n[nH]c1=S", "Potency": "inconclusive: 39.8 µM [inhibitor, single point]"},
      {"compound": "CCNC(=O)c1c(N)sc2c1CCCCC2", "Potency": "inconclusive: 3.16 µM [inhibitor, full curve]"},
      {"compound": "COc1ccc2c(c1)cc1n2CCN2CCCN=C12", "Potency": "inconclusive: 0.631 µM [inhibitor, partial curve]"},
      {"compound": "CN1CCc2c(sc(/N=C/c3cccs3)c2C(N)=O)C1", "Potency": "inconclusive: 25.1 µM [inhibitor, single point]"},
      {"compound": "COc1ccc(OCC2Cc3c(-c4ccccc4)nc4c(c3CO2)CN(CCOc2ccccc2)CC4)cc1", "note": "(stereo unspecified)", "activity change, negative = inhibition": "inactive: 9.76% [at 11.4 µM]"},
      {"compound": "Cc1ccc(-n2c(O)c(/C=N/n3cnnc3)c3ccccc3c2=O)cc1", "Potency": "inconclusive: 39.8 µM [inhibitor, single point]"},
      {"compound": "O=c1cc(-c2ccccc2)oc2cc(O)cc(O)c12", "Potency": "inconclusive: 10 µM [inhibitor, partial curve]"},
      {"compound": "CCn1c2ccccc2c2cc(C3C(C#N)=C(N)Oc4n[nH]c(COC)c43)ccc21", "note": "(stereo unspecified)", "Potency": "inconclusive: 39.8 µM [inhibitor, single point]"},
      {"compound": "CC1(C)C2CCC1(C)C(OC(=O)CSc1nc(N)cc(=O)[nH]1)C2", "note": "(stereo unspecified)", "Potency": "inconclusive: 31.6 µM [inhibitor, single point]"},
      {"compound": "Nc1ccc(N=Nc2ccc(-c3ccc(O)cc3)cc2)c2ccc(S(=O)(=O)O)cc12", "Potency": "active: 5.01 µM"},
      {"compound": "Cc1ccc2oc(-c3ccc(NC(=O)CC(C)C)cc3)nc2c1", "Potency": "inconclusive: 39.8 µM [inhibitor, single point]"},
      {"compound": "CCCn1c(C(O)c2cc(OC)ccc2OC)nc2ccccc21", "note": "(stereo unspecified)", "Potency": "inconclusive: 39.8 µM [inhibitor, single point]"},
      {"compound": "CC(C)(C)N1C(=O)[C@@H]2[C@H]3C(=CC[C@H]2C1=O)C(=O)[C@H]1O[C@H]1[C@H]3O", "Potency": "inconclusive: 7.94 µM [inhibitor, single point]"},
      {"compound": "CC(NC(=O)c1ccco1)C(=O)Nc1nc(-c2ccccn2)cs1", "note": "(stereo unspecified)", "Potency": "inconclusive: 39.8 µM [inhibitor, single point]"},
      {"compound": "CCOCCOC(=O)C(C)Sc1n[nH]c(=O)[nH]c1=O", "note": "(stereo unspecified)", "Potency": "inconclusive: 39.8 µM [inhibitor, single point]"},
      {"compound": "CCN(CC)C(=S)SSC(=S)N(CC)CC", "Potency": "active: 0.158 µM"},
      {"compound": "COC(=O)c1ccccc1", "Potency": "inactive"},
      {"compound": "Fc1c(F)c(F)c(CSc2nc3ccccc3[nH]2)c(F)c1F", "Potency": "inconclusive: 25.1 µM [inhibitor, single point]"},
      {"compound": "CC1(C(=O)N(c2ccccc2)C(C(=O)NC2CCCC2)c2ccccn2)CC(=O)N=C2C=CC=CN21", "note": "(stereo unspecified)", "Potency": "inactive"}
    ]}
  ]
}
